Experimental data: the supplement of paper PMC11283458
Some of the results follow. Repeats are few or missing, and single values can be far off.

Columns and labels:
[1] = test system: Mef2d microexon dual Nano/Firefly luciferase splicing reporter in Neuro-2a cells; test: B-score of Firefly/Nano luminescence ratio, V1 Mef2d microexon reporter (B-score (plate-normalised)); higher = more Mef2d microexon inclusion; details: 24 h
[2] = test system: Mef2d microexon dual Nano/Firefly luciferase splicing reporter in Neuro-2a cells; test: B-score of Nano/Firefly luminescence ratio, V2 Mef2d microexon reporter (B-score (plate-normalised)); higher = more Mef2d microexon inclusion; details: 24 h
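Throughout, for B-score of Nano/Firefly luminescence ratio, V2 Mef2d microexon reporter: compounds at 4 µM (PKI library 0.5 µM) on Dox-inducible N2A Flp-In cells with PEST-tagged luciferases, 384-well plates, B-score from per-plate median-polish residual over median absolute residual.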

SMILES | B-score [1] | B-score [2]
CON=C1CCCc2c(C(=O)NN=Cc3ccc(Cl)cc3)sc(SC)c21 (4 µM) | -6.49 | -9.34
Cc1ccc(NC(=O)CC2Sc3ccccc3NC2=O)c([N+](=O)[O-])c1 (stereo unspecified) (4 µM) | 2.19 | 3.62
COc1cc2ncn(-c3cc(OCc4ccccc4C(F)(F)F)c(C(N)=O)s3)c2cc1OC (4 µM) | -9.11 | -6.52
CC[C@H](C)[C@H]1O[C@]2(CC[C@@H]1C)C[C@@H]1C[C@@H](CC=C(C)[C@@H](O[C@H]3C[C@H](OC)[C@@H](O[C@H]4C[C@H](OC)[C@@H](O)[C@H](C)O4)[C@H](C)O3)[C@@H](C)C=CC=C3CO[C@@H]4[C@H](O)C(C)=C[C@@H](C(=O)O1)[C@]34O)O2 [Ivermectin] (4 µM) | 9.67 | 5
Nc1nccc(Oc2ccc(NC(=O)c3c[nH]cc(-c4ccc(F)cc4)c3=O)cc2F)c1Cl (0.5 µM) | 10.7 | 10.7
Cc1ccc(Cc2cnc(NC(=O)c3cnn(C)c3)s2)cc1 (4 µM) | -7.74 | -11.4
O=C(NCCCn1ccc2ccccc21)c1n[nH]c2ccccc12 (4 µM) | -3.43 | -5.62
CN1CCc2nc(NC(=O)c3csc(COc4ccc(Cl)cc4)n3)sc2C1 (4 µM) | -1.76 | -6.55
NC(=O)c1ccsc1NC(=O)COC(=O)c1ncc(Cl)c(Cl)c1Cl (4 µM) | -4.07 | -1.46
Cc1onc(-c2ccccc2)c1C(=O)ON=C(Cc1ccccc1)Cc1ccccc1 (4 µM) | 8.36 | 3.19
Cc1cccc(N2CC(C(=O)Nc3ccc(Cl)cn3)CC2=O)c1C (stereo unspecified) (4 µM) | -4.77 | -10.8
N#CC1=C(Nc2ccccc2Cl)SC(c2c(Cl)cccc2Cl)NC1=O (stereo unspecified) (4 µM) | -2.7 | -4.24
CC1(C)COC(/C=C/c2cccc([N+](=O)[O-])c2)=N1 (4 µM) | -2.32 | -4.59
COc1ccc2nc(-c3ccccc3)cc(NCCN(C)C)c2c1 (4 µM) | 2.19 | 3.07
O=C(O)[C@]1(Cc2cccc(Nc3nccs3)n2)CC[C@@H](Oc2cccc(Cl)c2F)CC1 (0.5 µM) | 7.53 | 4.69
CS(=O)c1sc(Br)c2c1C(=O)CCC2 (stereo unspecified) (4 µM) | -1.4 | -3.87
N#C/C(=C\Nc1cc(C(F)(F)F)cc(C(F)(F)F)c1)S(=O)(=O)c1ccccc1 (4 µM) | -4.05 | -6.34
COC(=O)c1cnc(NC(=O)C2CCN(c3ncnc4sc(C)c(C)c34)CC2)s1 (4 µM) | -14.3 | -13.7
COC(=O)Nc1nc2cc(C(=O)c3ccccc3)ccc2[nH]1 [Mebendazole] (4 µM) | -6.07 | -17.2

SMILES | B-score [1] | B-score [2]
Cc1cc(NC(=O)Nc2cc(Cl)cc(Cl)c2)on1 (4 µM) | 1.35 | 9.2
COc1cc(NC(=O)c2ccc([N+](=O)[O-])o2)cc(C(F)(F)F)c1 (4 µM) | 1.94 | 3.28
Cc1onc(-c2c(Cl)cccc2Cl)c1-c1nc(-c2cc(Cl)c(N)c(Cl)c2)no1 (4 µM) | 9.11 | 0.947
C=Cc1nc2c(cnn2-c2ccccc2)c(=O)[nH]1 (4 µM) | -1.83 | -5.32
S=C(S)N1CCCC1 [Ammonium pyrrolidinedithiocarbamate] (4 µM) | 3.67 | 37.4
COc1cc(CCc2cc(NC(=O)c3ccc(N4CC(C)NC(C)C4)cc3)n[nH]2)cc(OC)c1 (stereo unspecified) (0.5 µM) | 5.67 | 10.9
COc1cc(OC)c(NC(=O)Nc2ncc(C)s2)cc1Cl (4 µM) | 0.394 | 6.11
CCOC(=O)C(=Cc1cccc([N+](=O)[O-])c1)C(=O)OCC (4 µM) | -2.38 | -2.16
COc1cc(/C=C/C(=O)N2CCC=CC2=O)cc(OC)c1OC [Piperlongumine] (4 µM) | -1.52 | -17.7
CCOC(=O)c1sc(S(C)=O)c2c1CC(c1ccccc1)CC2=O (stereo unspecified) (4 µM) | 8.26 | 6.69
N#CC(=NNc1ccc(Cl)cc1Cl)C(=O)c1ccc(Cl)cc1 (4 µM) | 6.33 | 1.83
COCCCNC(=S)N/N=C/c1cccc(OC)c1O (4 µM) | 1.7 | 6.36
O=C(Cn1nnc(N2CCOCC2)n1)NNC(=S)Nc1ccc(F)cc1F (4 µM) | 8.21 | 0.471
COc1ccc(C(=O)ON=C(N)COc2ccc(Cl)cc2Cl)cc1 (4 µM) | -10.8 | -0.684
COc1cccc(-c2cc(C(=O)NC3CCCc4ccccc43)[nH]n2)c1 (stereo unspecified) (4 µM) | -3.82 | -5.71
C[N+]1(C)CCC(OC(=O)C(O)(c2ccccc2)C2CCCC2)C1.[Br-] (stereo unspecified) (4 µM) | 7.22 | 3.73
CC(C)c1ccc(C(=O)c2cccs2)c(SCCCCCCCCN(C)C)n1 (4 µM) | -3.32 | -5.79
CCOC(=O)c1cc(C#N)c(Sc2ccc(Cl)cc2)nc1C(F)(F)F (4 µM) | 9.09 | 0.216
CCN(CC)C(=S)SSC(=S)N(CC)CC [Tetraethylthiuram disulfide] (4 µM) | 4.23 | 86.5
